# Test results taken from PubChem BioAssay AID1240 (Sanford-Burnham Center for Chemical Genomics, 2008).
# Out of some 50,000 compounds screened, about 800 (1.6%) showed an effect of 50% or more. The list shows a part of the results.
# Biological target: Bcl-2-like protein 10 (Homo sapiens) (UniProt Q9HD36)
# Test: Phenotype converters, Bcl-B/TR3 peptide binding displacement, primary biochemical FP (AID 1240);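 also: 0% = Bcl-B with tracer peptide and DMSO and 100% = tracer peptide lacking Bcl-B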
# Details: GST-Bcl-B / FITC-TR3 peptide fluorescence polarization; stronger effect = higher value; compound at 3.75 mg/L
# Chain of UniProt Q9HD36 (Q9HD36 whole entry, looked up): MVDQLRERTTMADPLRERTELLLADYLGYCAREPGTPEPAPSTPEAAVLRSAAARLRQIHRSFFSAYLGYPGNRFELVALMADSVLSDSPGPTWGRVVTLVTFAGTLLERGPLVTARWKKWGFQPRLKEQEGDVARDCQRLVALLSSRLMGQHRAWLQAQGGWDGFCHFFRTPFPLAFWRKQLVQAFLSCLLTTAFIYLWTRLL
row,SMILES,displacement
1,CC1=C(C(=O)Nc2ccccc2)C(c2cccc(O)c2)NC(=S)N1 (stereo not given),-2.8%
2,CC(=O)C(Sc1ccccc1[N+](=O)[O-])C(C)=O,1%
3,CCn1c(=O)c(C(=O)Nc2ccccc2O)c(O)c2ccccc21,6.5%
4,COc1ccc(N(CC(=O)N2CCCCC2)S(=O)(=O)c2ccccc2[N+](=O)[O-])c(OC)c1,10%
5,O=C(/C=C/Nc1cccc(O)c1)c1ccc(Cl)cc1,-5.4%
6,COc1cc(NC(=O)c2nn3c(C(F)(F)F)cc(-c4ccccc4)nc3c2Br)c(OC)cc1Cl,-0.2%
7,CC(NC(=O)c1ccccc1)C12CC3CC(CC(C3)C1)C2 (stereo not given),39.3%
8,O=C1/C(=C/c2ccccc2[N+](=O)[O-])SC(=S)N1Cc1ccco1,16.5%
9,Cc1cccc(C)c1NC(=O)CSc1nc2ccccc2[nH]1,9.4%
10,COc1ccc(N2C(=O)c3cccc4c([N+](=O)[O-])ccc(c34)C2=O)cc1,12.4%
11,O=C(CSCc1cccc(Br)c1)NC1CCCCC1,-3.5%
12,CN1CCc2c(sc3c2C(=O)NC(/C=C\c2ccc([N+](=O)[O-])cc2)N3)C1 (stereo not given),24%
13,CC1(C)CC(=O)C2=C(C1)NC1=C(C(=O)CC(C)(C)C1)C2c1ccc(Br)cc1,15.9%
14,COCCNC(=O)C(C)Sc1ccc(Cl)cc1 (stereo not given),-1.3%
15,Cc1no[n+]([O-])c1COc1ccccc1/C=C1\N=C(c2ccccc2)OC1=O,-3.2%
16,CSc1ccccc1C(=O)O/N=C1/C(=O)N(C)c2ccccc21,2.5%
17,Cc1cccc(-n2c(O)c(C=NCc3ccc(F)cc3)c(=O)[nH]c2=O)c1,38.8%
18,CC(=O)Nc1ccc(NC2=C(Cl)C(=O)c3ccccc3C2=O)cc1,7.1%
19,CC1=C(C(=O)OCc2ccccc2)C(c2ccsc2)NC(=O)N1C (stereo not given),1.5%
20,Cc1cc(/C=C2/C(=O)NC(=O)N(c3ccccc3)C2=O)c(C)n1-c1ccccc1,30.8%
21,O=C1C(Nc2ccccc2)=CC(c2cccc(F)c2)N1c1ccccc1 (stereo not given),14.1%
22,CC(C)(C)NC(=O)c1cc(NC(=O)c2ccco2)cc(NC(=O)c2ccco2)c1,-4.7%

row,SMILES,displacement
1,COc1ccc(N2C(=O)/C(=C\c3cc(OC)ccc3OC)SC2=S)cc1,28.3%
2,CC1=C(C#N)c2nc(N)c(C#N)c(C)c2/C1=C/c1ccc(-c2cccc(Cl)c2Cl)o1,2.5%
3,O=C(NCCCCOc1ccccc1)C(O)(c1ccccc1)c1ccccc1,-4.9%
4,COc1ccc(C(=O)NCc2ccc3c(c2)OCO3)c(OC)c1,-2.2%
5,COc1ccc(C2NC(=S)NC(C)=C2C(=O)OCCOc2ccccc2)cc1 (stereo not given),-22.9%
6,N#C/C(=C/c1ccccc1F)C(=O)Nc1cccc(Br)c1,-0.7%
7,Cc1ccc(Cl)cc1NC(=O)CSc1nc2ccccc2[nH]1,-5.3%
8,COC(=O)c1sc2ccccc2c1N,5%
9,O=C(COc1ccc(Br)cc1)Nc1ccc(Cl)cc1,-4%
10,O=C(NCC1CCCO1)/C(=C\c1ccco1)NC(=O)c1ccccc1 (stereo not given),16.9%
11,Cc1ccc(N=C2NC(=O)CS2)cc1,1.2%
12,O=C(Nc1ccc([N+](=O)[O-])cn1)c1ccc(F)cc1,-0.2%
13,O=C(N/N=C/c1cc(Br)cc(Br)c1O)c1ccc(N2CCCC2=O)cc1,-0.6%
14,CC1C(C(=O)N(C=O)c2ccc(Br)cc2)C2C=CC1C21CC1 (stereo not given),11.2%
15,CCCC(=O)N1CCN(c2cc(N3CCC(C)CC3)c(F)cc2[N+](=O)[O-])CC1,-8.1%
16,CC(Oc1ccccc1)C(=O)NCc1cccnc1 (stereo not given),3.9%
17,Cc1ccc(S(=O)(=O)C/N=C(/NC(=S)N(c2ccccc2)c2ccccc2)c2ccccc2)cc1,0.8%
18,CC(=O)Nc1ccc(S(=O)(=O)NC(=O)C23CC4CC(CC(C4)C2)C3)cc1,0.8%
19,c1ccc(OCCSc2nc3ccccc3s2)cc1,-0.6%
20,Cc1c(Cl)c(C(F)(F)F)nn1CC(=O)N1CCN(c2ccc(F)cc2)CC1,5.7%
21,Clc1cccc(CN2CCN(C3CCN(Cc4ccccc4)CC3)CC2)c1,-20.1%
22,CCOc1cccc(=O)c2c(C)[nH]c(C)c12,40.5%

row,SMILES,displacement
1,Cc1cc(C)cc(NC(=O)c2ccco2)c1,12.3%
2,CCOc1cc(C(=O)Nc2ccc(C(=O)OC)cc2)cc(OCC)c1OCC,3.3%
3,CCC(=O)Nc1nnc(COc2ccccc2)s1,-1.6%
4,COC(=O)C(=C/C=C/N(C1CCCCC1)C1CCCCC1)C(=O)OC,1.1%
5,COc1ccc(/C=C2\SC(=S)N(CC(=O)Nc3ncc(Cc4cccc([N+](=O)[O-])c4)s3)C2=O)cc1OC,9.7%
6,Cc1cccc(OC(=O)Nc2ccc(Cl)cc2)c1,3.5%
7,CC(C)N(CCC#N)S(=O)(=O)c1ccc(-c2ccc([N+](=O)[O-])cc2)cc1,3.9%
8,CCOC(=O)C1=C(C)OC(N)=C(C#N)C1c1ccc(OC)cc1 (stereo not given),-10.8%
9,COCCOC(=O)C1=C(C)N(C)C(=O)NC1c1ccccc1Cl (stereo not given),-4.9%
10,CCOc1ccc(C(CC(=O)c2ccccc2)Nc2ccc(Cl)cc2)cc1 (stereo not given),10.1%
11,Cc1ccc(S(=O)(=O)Nc2c(C)n(C)n(-c3ccccc3)c2=O)c(C)c1,-4.7%
12,CCCCCCOC(=O)C1=C(C)NC(=O)NC1c1ccc(F)cc1 (stereo not given),-1.4%
13,COc1c(Br)cc(Br)cc1/C=N/NC(=O)CNC(=O)c1cccc(F)c1,1.8%
14,O=C(Nc1sc2c(c1C(=O)Nc1ccccn1)CCCCC2)c1ccccc1,95%
15,Cc1ccc(/C=C2/C=C(c3ccccc3)OC2=O)o1,22.9%
16,O=[N+]([O-])c1ccc(-c2nc3ccc(Br)cn3[n+]2[O-])cc1,9.3%
17,CCOC(=O)c1ccc(NC(=O)CN(CCc2ccccc2)S(=O)(=O)c2ccc(OC)cc2)cc1,-23.7%
18,O=C1NC(=O)/C(=C\c2ccc(-c3ccc(C(=O)O)cc3)o2)S1,22.4%
19,CCOc1ccc(C(NC(=O)c2ccco2)c2ccc(OC)c(OC)c2)cc1 (stereo not given),7.2%
20,O=C(Nc1ccccc1Br)NS(=O)(=O)c1ccccc1Cl,2.3%
21,O=C(Nc1ccccc1C(=O)O)c1ccc2c(c1)C(=O)N(c1ccccc1-c1ccccc1)C2=O,5.3%
22,Cc1cccc(C)c1NC(=O)CO/N=C(\N)c1nonc1N,12.6%

row,SMILES,displacement
1,O=C(Nc1ccccc1C(=O)NCCc1ccccc1)c1cccnc1,-16.8%
2,CCOC(=O)c1c(C)oc2cc(Br)c(OC)cc12,12.6%
3,COc1ccc(CNC(=O)COc2ccc(Cl)cc2Br)cc1,16.8%
4,O=C(Nc1ccc(C(=O)N2CCOCC2)cc1)Nc1cccc(Cl)c1,16.1%
5,CCc1c(C)sc(NC(=O)c2cccs2)c1C(=O)OC,3.3%
6,O=C(Nc1ccc(N2CCOCC2)cc1)C1(S(=O)(=O)c2ccccc2)CC1,11.7%
7,O=[N+]([O-])c1ccccc1S(=O)(=O)Nc1cccc(I)c1,26%
8,O=C1Nc2ccc([N+](=O)[O-])cc2C1=Nc1ccc(-c2ccc(N=C3C(=O)Nc4ccc([N+](=O)[O-])cc43)cc2)cc1,3.3%
9,CCN(CC)CCOc1c(Cl)cccc1Cl,8.4%
10,O=C1CC(c2ccccc2)CC2=C1C(c1ccc(F)c(Br)c1)Nc1ccccc1N2 (stereo not given),2.8%
11,CC(C)(C)c1ccc(/C=C2\SC(N3CCOCC3)=NC2=O)cc1,-19.4%
12,O=C(Nc1nc2ccc3ccccc3c2s1)c1ccc(Cl)cc1Cl,-14.6%
13,COc1ccc(-c2csc(Nc3ccc4c(c3)OCO4)n2)cc1F,9.4%
14,N/C(Cc1ccc(Cl)cc1)=N\OC(=O)Cc1ccc([N+](=O)[O-])cc1,-25.5%
15,O=C1NC(c2ccccc2)Nc2c1sc(=S)n2-c1ccccc1 (stereo not given),12.7%
16,CCOC(=O)CSc1nccc(N(C)C)c1C#N,-5.8%
17,CC(C)(C)C1CCc2c(sc(NC(=O)c3ccccc3)c2C(N)=O)C1 (stereo not given),37%
18,COc1ccc(-c2cn3ccc4ccccc4c3n2)cc1OC,0%
19,O=C1OC(c2ccc(Br)cc2)=C/C1=C\C=C\c1ccccc1,-8.3%
20,c1ccc(C(Sc2nc3ccccc3[nH]2)c2ccccc2)cc1,-9.9%
21,COc1cc(C=O)c(Br)cc1OCc1ccccc1Cl,-5.8%
22,O=S(=O)(Cc1ccccc1)NCCOc1ccccc1Cl,11.5%

row,SMILES,displacement
1,COc1ccc(C(=O)c2ccccc2)c(OC)c1,11.9%
2,O=C(Nc1nccs1)c1ccc2c(c1)C(=O)N(c1ccc(Cl)cc1)C2=O,5.1%
3,O=C(COc1ccc(Br)cc1)Nc1ccc(Cc2ccncc2)cc1,13.8%
4,CCC(Sc1nc2ccccc2[nH]1)C(=O)Nc1cccc2ccccc12 (stereo not given),2.1%
5,CCNC(=S)Nc1sc2c(c1C(=O)OCC)CCC2,-10.6%
6,COc1ccc(OC)c(/C=N/n2cnnc2)c1,11.1%
7,Cc1cc2nc(-c3cc(NC(=O)/C=C/c4ccccc4)ccc3O)oc2cc1C,21.9%
8,O=C(NCCc1ccccc1)C1C(c2ccccc2)=C1c1ccccc1,-7.7%
9,O=C(c1ccccc1[N+](=O)[O-])N(Cc1ccccc1)Cc1ccccc1,0.6%
10,COc1ccc(/C=N/N(C)C2=NS(=O)(=O)c3cc([N+](=O)[O-])ccc32)cc1Br,-17.4%
11,CCN(CC)c1ccc(C=Nn2cnnc2)cc1,-8.4%
12,CCOP(=O)(OCC)C(Nc1ccccc1)c1cccc([N+](=O)[O-])c1 (stereo not given),4.4%
13,Cc1ccccc1C(=O)Nc1sc2c(c1C(=O)O)CCC2,-4.2%
14,Cc1cc(Br)c2[nH]c(O)c(N=Nc3cccc4cccnc34)c2c1,42.5%
15,CS(=O)(=O)N(CC(=O)Nc1ccccc1Cl)c1ccc(Oc2ccccc2)cc1,-4.3%
16,O=C(CN1C(=O)/C(=C\c2ccccc2F)SC1=S)Nc1ccc(C(=O)O)cc1,-3.8%
17,CCOC(=O)C1=C(C)N=c2s/c(=C\c3cccs3)c(=O)n2C1c1ccc(F)cc1 (stereo not given),10.2%
18,COC(=O)C1CC(OCc2ccccc2)C1 (stereo not given),13.9%
19,O=C(O)c1cc(NC(=O)c2ccccc2Cl)cc(C(=O)O)c1,-10.9%
20,COc1cccc(C(=O)N2N=C(c3cccc(Br)c3)CC2(O)C(F)(F)F)c1 (stereo not given),4%
21,O=C(NC(=S)Nc1ccc([N+](=O)[O-])cc1O)c1ccccc1,3.9%
22,COc1ccc2ccccc2c1C1NC(=S)NC(C)=C1C(=O)Nc1cc(Cl)ccc1C (stereo not given),10.4%
